Assay results from the supplement of paper PMC5919970.
Several values for one entry are separate records, joined by “and”; a condition that tells them apart may be missing. Equal values may be shown once. Where a name gives a salt, the structure may show the parent alone. The full ranking holds about 2,000 compounds; the median of “fractional viability relative to vehicle” is about 0.91, and the lowest 2% start at about 0.045. This is one part of the list.

Test system: TYKNU
Test: fractional viability relative to vehicle; TYKNU is a high-grade serous ovarian cancer line; higher = less growth inhibition
Conditions: 72 h
Summary of the method: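 TYKNU control cells or lentiCRISPRv2 knockout derivatives were plated at 500 cells per well in duplicate into drug-stamped 384-well plates holding a ~2100-compound library at 2 or 10 μM. Culture was in RPMI 1640 with 10% FBS at 37 °C in 5% CO2, with 72 h of drug treatment. Viability was measured by Cell Titer Glo luminescence, and the averaged duplicate treatment wells were normalised to duplicate control wells at the same plate position.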

[1] = 2uM, genotype: DNM1L knockout (sgDNM1L #1)
[2] = 2uM, genotype: sgCTRLA1 (non-targeting control)
[3] = 10uM, genotype: DNM1L knockout (sgDNM1L #1)
[4] = 10uM, genotype: sgCTRLA1 (non-targeting control)

Row | SMILES | fractional viability [1] | fractional viability [2] | fractional viability [3] | fractional viability [4]
1 | CC(=O)S[C@@H]1CC2=CC(=O)CC[C@]2(C)[C@H]2CC[C@@]3(C)[C@@H](CC[C@@]34CCC(=O)O4)[C@H]12 [Spironolactone] | 1.03 | 1.08 | 0.835 | 1.04
2 | O=C(O)[C@]1(Cc2cccc(Nc3nccs3)n2)CC[C@@H](Oc2cccc(Cl)c2F)CC1 | 0.521 | 0.712 | 0.439 | 0.417
3 | COc1cc2c(Nc3ccc(NC(=O)c4ccccc4)cc3)ncnc2cc1OCCCN1CCOCC1 | 0.862 | 0.959 | 0.266 | 0.22
4 | CC(=O)Nc1ccc(C(=O)Nc2ccccc2N)cc1 [CI994 (Tacedinaline)] | 0.966 | 0.965 | 0.456 | 0.675
5 | C=C1CC[C@H](O)C/C1=C/C=C1\CCC[C@]2(C)[C@@H]([C@H](C)CCCC(C)C)CC[C@@H]12 [Vitamin D3] | 0.936 | 1.13 | 0.276 | 0.497
6 | CC(C)(O)[C@H]1CC[C@@](C)([C@H]2[C@@H](O)C[C@@]3(C)[C@@H]4C[C@H](O[C@@H]5O[C@H](CO)[C@@H](O)[C@H](O)[C@H]5O)[C@H]5C(C)(C)[C@@H](O[C@@H]6OC[C@@H](O)[C@H](O)[C@H]6O)CC[C@@]56C[C@@]46CC[C@]23C)O1 [Astragaloside A] | 0.893 | 1.13 | 0.755 | 0.989
7 | COC(=O)Nc1nc2cc(C(=O)c3cccs3)ccc2[nH]1 [Nocodazole] | 0.168 | 0.139 | 0.203 | 0.177
8 | COc1cc(Br)c(Nc2nc(-c3c(C)nc4ncccn34)cs2)c(Br)c1 | 0.132 and 0.166 | 0.149 and 0.143 | 0.152 and 0.167 | 0.116 and 0.103
9 | CC(C)(C)c1cnc(CSc2cnc(NC(=O)C3CCNCC3)s2)o1 | 0.272 | 0.294 | 0.361 | 0.285
10 | CCN[C@H]1CN(CCCOC)S(=O)(=O)c2sc(S(N)(=O)=O)cc21 [Brinzolamide] | 1.02 | 1.14 | 0.8 | 1.04
11 | CC(C)c1c(C(=O)Nc2ccccc2)c(-c2ccccc2)c(-c2ccc(F)cc2)n1CC[C@@H](O)C[C@@H](O)CC(=O)O [Atorvastatin Calcium] | 0.591 | 0.614 | 0.286 | 0.313
12 | OC(Cn1cncn1)(Cn1cncn1)c1ccc(F)cc1F [Fluconazole] | 1 | 1.19 | 0.894 | 0.994
13 | NCCc1c[nH]cn1 [Histamine 2HCl] | 1.04 | 0.99 | 0.758 | 0.948
14 | Nc1[nH]cnc2ncnc1-2 [Adenine HCl] | 0.977 | 0.959 | 1.01 | 1.22
15 | CC(=O)Nc1cccc(-n2c(=O)n(C3CC3)c(=O)c3c(Nc4ccc(I)cc4F)n(C)c(=O)c(C)c32)c1 | 0.253 | 0.199 | 0.201 | 0.182
16 | C[C@@H](NCCCc1cccc(C(F)(F)F)c1)c1cccc2ccccc12 [Cinacalcet HCl] | 0.861 | 1.12 | 0.521 | 0.856
17 | COc1cc2ncnc(Sc3nnc(C)s3)c2cc1OC | 0.747 | 0.866 | 0.0591 | 0.0581
18 | O=C(NC[C@H](O)CN1CCc2ccccc2C1)c1cc(NC2COC2)ncn1 | 0.764 | 0.899 | 0.604 | 0.662
19 | Cc1ccc(S(=O)(=O)c2ccc([N+](=O)[O-])o2)cc1 | 0.0323 | 0.012 | 0.0126 | 0.00867

Row | SMILES | fractional viability [1] | fractional viability [2] | fractional viability [3] | fractional viability [4]
20 | O=C1NC(=O)C(c2cnc3ccccn23)=C1c1cn2c3c(cc(F)cc13)CN(C(=O)N1CCCCC1)CC2 | 0.458 | 0.753 | 0.395 | 0.671
21 | CCCc1ncc(C[n+]2ccccc2C)c(N)n1 [Amprolium HCl] | 0.879 | 1.04 | 0.834 | 1.02
22 | O=C1NC(=O)/C(=C/c2ccc3nccc(-c4ccncc4)c3c2)S1 | 0.556 | 0.7 | 0.21 | 0.219
23 | O=C1NC(=O)C(c2ccccc2[N+](=O)[O-])=C1Nc1ccc(O)c(Cl)c1 | 1.09 | 1.22 | 0.762 | 1.13
24 | OC[C@H]1OC(O)[C@H](O)[C@@H](O)[C@@H]1O (stereo partly drawn) [Dextrose] | 0.922 | 1.05 | 0.941 | 0.998
25 | CC(C(=O)O)c1cccc(Oc2ccccc2)c1 (stereo not drawn) [Fenoprofen calcium hydrate] | 1.05 | 1.12 | 0.821 | 1.04
26 | CC(C(=O)O)c1cccc(Oc2ccccc2)c1 (stereo not drawn) [Fenoprofen Calcium] | 1.27 | 1.08 | 0.966 | 0.961
27 | COCCOc1nc(-c2ccc(Cl)c(Cl)c2)n(-c2ccc(NC(=O)CCl)cc2)n1 [MI-2 (MALT1 inhibitor)] | 0.786 | 1.05 | 0.792 | 0.806
28 | OC[C@@H](O)[C@@H](O)[C@H](O)[C@H](O)CO [D-Mannitol] | 0.913 | 1.29 | 0.841 | 1.14
29 | CC(=O)OCC(=O)NCCCOc1cccc(CN2CCCCC2)c1 [Roxatidine Acetate HCl] | 1.1 | 1.05 | 1.05 | 0.98
30 | CCn1cc(C(=O)O)c(=O)c2cc(F)c(N3CCNCC3)nc21 [Enoxacin] | 1.05 | 1.02 | 0.98 | 1.03
31 | C[C@H](NCc1ccc(OCc2cccc(F)c2)cc1)C(N)=O [Safinamide Mesylate] | 1.04 | 1.11 | 0.986 | 1.25
32 | C=C(C)[C@@H]1CC[C@]2(C(=O)O)CC[C@]3(C)[C@H](CC[C@@H]4[C@@]5(C)CC[C@H](O)C(C)(C)[C@@H]5CC[C@]43C)[C@@H]12 [Betulinic acid] | 0.89 | 1.13 | 0.691 | 0.997
33 | O=C(O)C1=C[C@@H](O)[C@@H](O)[C@H](O)C1 [Shikimic Acid] | 0.996 | 1.17 | 0.84 | 1.06
34 | C1N2CN3CN1CN(C2)C3 [Methenamine] | 1.05 | 1.28 | 0.752 | 1.09
35 | CC(C)OC(=O)C(C(=O)OC(C)C)=C1SC=CS1 [Malotilate] | 0.886 | 1.1 | 0.843 | 1.02
36 | c1ccc2c(c1)CCCC2C1=NCCN1 (stereo not drawn) [Tetrahydrozoline HCl] | 0.932 | 1.08 | 0.758 | 0.986
37 | CC[C@]12C=CCN3CC[C@@]4(c5cc([C@@]6(C(=O)OC)C[C@@H]7C[C@@H](C(C)(F)F)CN(Cc8c6[nH]c6ccccc86)C7)c(OC)cc5N(C)[C@H]4[C@@](O)(C(=O)OC)[C@@H]1OC(C)=O)[C@@H]32 [Vinflunine Tartrate] | 0.191 | 0.144 | 0.142 | 0.114
